Data on 58 compounds can be found in publication PMC4336329 (PLoS ONE, 2015).

In all, about 310,000 compounds went through this assay and about 2,200 (0.71%) showed an effect of 50% or more. The effect is printed as a negative number. The list shows a part of the results.

For the experiment, the target named is human ether-à-go-go-related gene (hERG) potassium channel (human, UniProt Q12809). The experiment is described as follows: primary screen, population patch clamp on CHO cells stably expressing hERG.
human ether-à-go-go-related gene (hERG) potassium channel, sequence (Q12809 whole entry, looked up): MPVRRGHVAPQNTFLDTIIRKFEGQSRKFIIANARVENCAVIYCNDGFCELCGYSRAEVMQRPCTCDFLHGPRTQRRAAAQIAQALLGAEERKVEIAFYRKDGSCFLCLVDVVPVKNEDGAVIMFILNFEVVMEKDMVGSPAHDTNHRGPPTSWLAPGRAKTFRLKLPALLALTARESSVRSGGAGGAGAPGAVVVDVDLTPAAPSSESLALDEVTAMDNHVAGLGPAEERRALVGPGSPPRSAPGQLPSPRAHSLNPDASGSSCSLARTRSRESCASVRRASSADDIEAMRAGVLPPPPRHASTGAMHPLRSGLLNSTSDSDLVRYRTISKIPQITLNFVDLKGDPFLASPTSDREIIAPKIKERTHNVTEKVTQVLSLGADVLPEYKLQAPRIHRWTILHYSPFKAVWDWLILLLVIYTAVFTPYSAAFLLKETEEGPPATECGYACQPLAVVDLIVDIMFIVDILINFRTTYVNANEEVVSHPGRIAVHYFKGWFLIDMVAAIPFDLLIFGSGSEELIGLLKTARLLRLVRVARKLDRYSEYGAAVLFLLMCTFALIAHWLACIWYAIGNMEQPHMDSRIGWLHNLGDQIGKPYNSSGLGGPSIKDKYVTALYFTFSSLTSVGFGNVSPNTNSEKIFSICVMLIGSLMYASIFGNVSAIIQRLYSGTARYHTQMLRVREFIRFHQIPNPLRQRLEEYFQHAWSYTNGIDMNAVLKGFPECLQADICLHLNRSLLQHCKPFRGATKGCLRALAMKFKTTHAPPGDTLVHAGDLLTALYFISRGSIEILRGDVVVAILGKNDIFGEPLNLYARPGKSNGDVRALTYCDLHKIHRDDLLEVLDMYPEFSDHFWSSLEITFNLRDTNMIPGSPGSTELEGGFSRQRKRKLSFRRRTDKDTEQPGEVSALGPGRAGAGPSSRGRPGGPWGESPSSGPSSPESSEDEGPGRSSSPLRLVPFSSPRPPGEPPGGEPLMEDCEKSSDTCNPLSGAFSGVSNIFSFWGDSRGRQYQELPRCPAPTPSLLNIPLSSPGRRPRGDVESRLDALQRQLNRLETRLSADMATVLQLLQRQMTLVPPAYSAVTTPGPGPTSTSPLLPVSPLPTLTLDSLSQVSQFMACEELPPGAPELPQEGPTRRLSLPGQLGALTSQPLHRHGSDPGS
In the case of `COc1cc(/C=C2\SC(=S)N(CCC(=O)N3CCN(C)CC3)C2=O)cc(OC)c1OC`, the “hERG current change (%, negative = inhibition) at 1uM” value is -11.9%.

`Cn1c(-c2sc3cc(C(F)(F)F)cnc3c2-c2ccccn2)n[nH]c1=S`: the “hERG current change (%, negative = inhibition) at 1uM” value is listed as 8.25%.

Consider `CCC/C=N/Nc1nnc(Cc2ccccc2)c(=O)[nH]1`, for which the “hERG current change (%, negative = inhibition) at 1uM” value is -6.7%.

Consider `CCN(CC)C(=O)CSc1nc(-c2cccs2)cc(-c2cccs2)c1C#N`, for which the “hERG current change (%, negative = inhibition) at 1uM” value is -13.3%.

Consider `CC1CCC(NC(=O)c2cc(Cl)nc3ccccc23)CC1` (stereo not shown), for which the “hERG current change (%, negative = inhibition) at 1uM” value amounted to 16.9%.

`CC(C)c1ccc(CN2CC(C(=O)O)CC2=O)cc1` (stereo not shown): the “hERG current change (%, negative = inhibition) at 1uM” value was 11.9%.

For the compound `COc1ccccc1N(C)S(=O)(=O)c1ccc(C(=O)N2CCCC(C(F)(F)F)C2)cc1` (stereo not shown), the “hERG current change (%, negative = inhibition) at 1uM” value came to 11.3%.

As for `O=C(Nc1ccnn1C1CCN(Cc2ccccc2)CC1)C1CCCC1`, the “hERG current change (%, negative = inhibition) at 1uM” value is given as -15.9%.

In the case of `CCOC(=O)C1CCN(Cc2cccc(Oc3ccccc3)c2)CC1`, the “hERG current change (%, negative = inhibition) at 1uM” value stood at 1.37%.

As to `COc1cccc(-c2cccc(NC(=O)C3CCN(Cc4cccc(C)n4)CC3)c2)c1`, the “hERG current change (%, negative = inhibition) at 1uM” value is given as -46.7%.

As for `COc1ccccc1C(=O)N1CCC(N2CCN(c3ccccc3)CC2)CC1`, the “hERG current change (%, negative = inhibition) at 1uM” value is on record as 8.69%.

With `COc1ccccc1-n1cnc2cc(C(=O)NCCCN3CCOCC3)ccc21`, the “hERG current change (%, negative = inhibition) at 1uM” value is given as 6.93%.

For the compound `CC(C)c1ccc(S(=O)(=O)N2CCN(C(=O)n3ccnc3)CC2)cc1`, the “hERG current change (%, negative = inhibition) at 1uM” value is reported as -9.6%.

With `Fc1ccc(CN2CCN(C(=S)NCCc3ccccc3)CC2)c(Cl)c1`, the “hERG current change (%, negative = inhibition) at 1uM” value is listed as 17.4%.

With `Cc1ccc(N2C(=O)NC(=O)C(CCc3ccccn3)(Cc3cccc(Cl)c3Cl)C2=O)cc1` (stereo not shown), the “hERG current change (%, negative = inhibition) at 1uM” value turned out to be 0.912%.

For `COc1ccc(/C=N\NC(=O)c2ccccc2OC)cc1COc1ccccc1C`, the “hERG current change (%, negative = inhibition) at 1uM” value is given as 15%.

On to `CNC(=O)C1(C)C=CC2(CCCCC2)N1C(=O)OC` (stereo not shown), for which the “hERG current change (%, negative = inhibition) at 1uM” value is listed as 16.8%.

As for `O=S(=O)(c1ccc2ccccc2c1)N1C=CC(C(F)(F)F)=NCC1`, the “hERG current change (%, negative = inhibition) at 1uM” value is recorded as 6.67%.

With `COc1ccc(-n2c(=O)c3c4c(sc3n(CC(=O)NCC3CCCO3)c2=O)CCCC4)c(OC)c1` (stereo not shown), the “hERG current change (%, negative = inhibition) at 1uM” value came to 10.2%.

`COc1cc(/C=N/N=C(N)N)ccc1OCc1ccc(Cl)cc1`: the “hERG current change (%, negative = inhibition) at 1uM” value is -10.3%.

Turning to `O=C1c2ccccc2NC(c2cccs2)N1NS(=O)(=O)c1ccccc1` (stereo not shown), the “hERG current change (%, negative = inhibition) at 1uM” value is on record as 6.35%.

On to `CN1C(=O)/C(=C/c2ccccc2OCc2ccc(C(=O)O)cc2)NC1=S`, for which the “hERG current change (%, negative = inhibition) at 1uM” value came to 11.5%.

For `CCOc1ccc(S(=O)(=O)N(C)c2ccc(OCC(=O)N3c4ccc(C)cc4C4CN(C)CCC43)cc2)cc1` (stereo not shown), the “hERG current change (%, negative = inhibition) at 1uM” value is -2.11%.

As to `COc1ccc(N2CCN(C(=O)CCSCc3ccccc3F)CC2)cc1`, the “hERG current change (%, negative = inhibition) at 1uM” value is on record as 7.88%.

Turning to `c1ccc(C(Cc2nc(-c3ccccn3)no2)c2ccccc2)cc1`, the “hERG current change (%, negative = inhibition) at 1uM” value is -2.47%.

With `O=S(=O)(NCCSc1nc2ccccc2o1)c1ccccc1`, the “hERG current change (%, negative = inhibition) at 1uM” value was 6.23%.

In the case of `O=C(O)c1ccc(COc2ccc3ccccc3c2)o1`, the “hERG current change (%, negative = inhibition) at 1uM” value is 8.76%.

Consider `COc1ccc(NC(=O)NCc2ccc3c(c2)OCO3)cc1`, for which the “hERG current change (%, negative = inhibition) at 1uM” value was 6.04%.

`CCOc1ncccc1C(=O)Nc1ccc2c(C)cc(=O)oc2c1`: the “hERG current change (%, negative = inhibition) at 1uM” value was found to be 14.5%.

With `Cc1c(CC(=O)O)c(=O)oc2c(C)c(OCc3c(F)cccc3Cl)ccc12`, the “hERG current change (%, negative = inhibition) at 1uM” value was 11.5%.

Consider `CCn1c(COc2cccc3cccnc23)nnc1SC(F)F`, for which the “hERG current change (%, negative = inhibition) at 1uM” value is listed as 8.09%.

For `CCOC(=O)C(Cc1ccccc1)(Cc1ccccc1)C(C)=O`, the “hERG current change (%, negative = inhibition) at 1uM” value is 9.95%.

Regarding `Cc1cnc(CN2CCc3c([nH]c4ccccc34)C2C2CCCCC2)[nH]1` (stereo not shown), the “hERG current change (%, negative = inhibition) at 1uM” value is -6.2%.

On to `Cc1cc2[nH]c(=O)c(=O)[nH]c2cc1S(=O)(=O)N1CCC(C)CC1`, for which the “hERG current change (%, negative = inhibition) at 1uM” value worked out at 8.26%.

As to `O=C(NNc1ncnc2c1cnn2-c1ccccc1)c1ccco1`, the “hERG current change (%, negative = inhibition) at 1uM” value was determined as 6.44%.

In the case of `Cn1c(CNC(=O)CNC(=O)Cc2ccccc2)cc(=O)n(C)c1=O`, the “hERG current change (%, negative = inhibition) at 1uM” value was found to be 18.2%.

For `COc1ccc(NC(=S)NNC(=O)C(C)n2nc(C)c([N+](=O)[O-])c2C)cc1` (stereo not shown), the “hERG current change (%, negative = inhibition) at 1uM” value is given as 15.9%.

Turning to `CC(=O)Nc1ccc(-n2cc(-c3ccccc3)[nH]c2=S)cc1`, the “hERG current change (%, negative = inhibition) at 1uM” value is recorded as 15.5%.

On to `CCN1C(=O)c2cccc3c(S(=O)(=O)NC(Cc4c[nH]c5ccccc45)C(=O)O)ccc1c23` (stereo not shown), for which the “hERG current change (%, negative = inhibition) at 1uM” value is -0.758%.

`COc1cccc(C(=O)c2ncc(C(F)(F)F)cc2Cl)c1`: the “hERG current change (%, negative = inhibition) at 1uM” value is on record as 11.4%.

For the compound `O=c1oc2ccc3ccccc3c2c2c1SC(C(F)(F)F)C2` (stereo not shown), the “hERG current change (%, negative = inhibition) at 1uM” value was found to be 5.17%.

Turning to `CCOCCCNC(=O)CSc1ccccc1`, the “hERG current change (%, negative = inhibition) at 1uM” value is on record as 27.5%.

For `CCN(CC)CCCNC(=O)c1ccccc1C`, the “hERG current change (%, negative = inhibition) at 1uM” value was 5.83%.

In the case of `O=C(Cn1c(CN2CCCCC2)nc2ccccc2c1=O)Nc1ccccc1`, the “hERG current change (%, negative = inhibition) at 1uM” value is listed as -7.71%.

On to `O=C(NCc1cccnc1)c1cnc2ccccc2n1`, for which the “hERG current change (%, negative = inhibition) at 1uM” value was found to be 7.42%.

For `CSc1ccccc1OCc1cc(C(=O)N2CCNC(=O)C2)no1`, the “hERG current change (%, negative = inhibition) at 1uM” value is 2.02%.

As to `CCOc1ccc(NC(=S)NC23CC4CC(CC(C4)C2)C3)cc1`, the “hERG current change (%, negative = inhibition) at 1uM” value came to 1.79%.

On to `CC(=O)NC(CC(=O)NCc1ccncc1)c1ccccc1` (stereo not shown), for which the “hERG current change (%, negative = inhibition) at 1uM” value was found to be 14.8%.

As to `Cc1ccc2[nH]cc(CCNC(=O)/C=C/c3ccco3)c2c1`, the “hERG current change (%, negative = inhibition) at 1uM” value was 9.37%.

Take `CC(Cl)C(=O)Nc1ccccc1C#N` (stereo not shown): the “hERG current change (%, negative = inhibition) at 1uM” value came to 24%.

`COc1ccc(/C=C(/NC(=O)c2ccccc2)C(=O)Nc2cccc(C(=O)O)c2)cc1`: the “hERG current change (%, negative = inhibition) at 1uM” value stood at 12.1%.

For `OCC#CC[N+]1(CC#Cc2ccccc2)CCOCC1.[Br-]`, the “hERG current change (%, negative = inhibition) at 1uM” value is recorded as 6.94%.

As to `CN1C(=O)C2(C(C#N)=C(N)Oc3c2oc(CO)cc3=O)c2ccccc21` (stereo not shown), the “hERG current change (%, negative = inhibition) at 1uM” value was found to be 12%.

As to `COc1ccc(OC)c(NC(=O)CS(=O)(=O)Cc2nc(-c3ccccc3C)oc2C)c1`, the “hERG current change (%, negative = inhibition) at 1uM” value was 11.4%.

With `O=C(Cn1ccc2ccccc2c1=O)NCCC(=O)N1CCN(c2cccc(C(F)(F)F)c2)CC1`, the “hERG current change (%, negative = inhibition) at 1uM” value came out at 0.874%.

Turning to `COc1ccc(C2SCCN2C(=O)c2ccc([N+](=O)[O-])cc2)cc1` (stereo not shown), the “hERG current change (%, negative = inhibition) at 1uM” value is listed as -8.35%.

As for `CNC(=O)CSCc1c(Cl)cccc1Cl`, the “hERG current change (%, negative = inhibition) at 1uM” value is 3.16%.

On to `COC(=O)c1sc(NC(=O)C2c3ccccc3Oc3ccccc32)c(C(=O)OC)c1C`, for which the “hERG current change (%, negative = inhibition) at 1uM” value is on record as 2.29%.
